# Measured values reported in PubChem BioAssay (NCATS).
# Some of the results follow. Shown are side measurements of this screen, not its main read-out; they come without a call. For some assays here: The list favours compounds with an active or inconclusive main result. For some assays here: Potencies come from curve fits of mixed quality, noted in brackets.
# Assays:
# [1] = qHTS Assay for Lipid Storage Modulators (AID 1519); conditions: Drosophila S3 cells, BODIPY lipid droplet/cell ratio, laser cytometry, cells loaded with oleic acid
# In short: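 Cells seeded at 5,000 per well were treated with compounds over a concentration series and loaded with oleic acid (400 uM, as added). Lipid droplet fluorescence (488 nm excitation, 500-530 nm channel) was read by laser-scanning cytometry and normalized to 20 uM Triacsin C.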
# [2] = qHTS Assay for Modulators of Human Peripheral Myelin Protein 22 (PMP22) Expression/Activity (AID 1967); conditions: Cell-based PMP22 reporter, dual-color luciferase ratio
# In short: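 MSC80 mouse Schwann cells stably carrying Pmp22 promoter–green click beetle luciferase plus EF-alpha–red luciferase control were dosed for 24h at 37 °C. Dual-colour luminescence was filter-overlap corrected; %Activity came from green/red ratio versus untreated cells.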
# [3] = A High-Content qHTS Against Drug Library for the Identification of Small Molecules that Inhibit DYT1 Early Onset Primary Dystonia-Associated Cell Pathology (AID 1645839); conditions: HEK293 Flp-In EGFP-delE TorsinA, punctate imaging, 48 h; measured here: cell count cytotoxicity
# In short: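 Flp-In T-REx 293 cells with tetracycline-inducible EGFP-delE hTOR1A (WT EGFP-hTOR1A as reference), 800 cells/well; compound added with tetracycline, 48 h at 37 C. Fixed, permeabilized cells imaged; %pathology (punctate TorsinA) primary, cell count counterscreen.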
# [4] = qHTS drug screen for cell cycle checkpoint inhibitors in PARPi-resistant BRCA-mutant ovarian cancer cell lines. (AID 1963452); conditions: PEO1/OlaR viability, CellTiter-Glo luminescence, 96 h
# In short: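 PEO1, PEO4 and PEO1/OlaR ovarian cancer cells, 600 per well, exposed 96 h at 37C to a dilution series. Viability read by CellTiter-Glo luminescence, normalized to DMSO and empty wells; activity summarized as Z-AUC.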
# [5] = qHTS Assay for Inhibitors of PDE-IV (AID 607); conditions: HEK293 ACTOne CNG channel cells, membrane potential fluorescence; measured here: parental cell counter-screen;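 note: parental cells stimulated with forskolin 10 µM plus RO 20-1724 100 µM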
# In short: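 The readout is membrane depolarisation from a cAMP-sensing CNG channel, detected with a potential dye at ex 535/em 590. Cells were HEK293-derived (endogenous PDE-IV) at 1000 cells/well, titrated up to 22.9 uM final.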
# [6] = qHTS Validation Assay to Find Inhibitors of Chronic Active B-Cell Receptor Signaling (AID 485345); conditions: ABC-DLBCL cells, chronic BCR signaling reporter; measured here: CBR control luciferase (viability counter)
# In short: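 TMD8 ABC-DLBCL cells stably carrying doxycycline-inducible IkappaBalpha–green luciferase fusion plus unfused red luciferase; compounds 46 uM to 3 nM, 4 h at 37C with doxycycline. Corrected green/red luminescence ratio normalized to 10 uM MG-132 and basal cell wells; curves fitted.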
# [7] = target: Histamine N-methyltransferase (Homo sapiens) (UniProt P50135); assay: Confirmatory Screen for Target Class Profiling of Small Molecule Inhibitors of Methyltransferases (AID 1745852); conditions: MTase-Glo luminescence, SAH detection, recombinant enzyme; measured here: HNMT inhibition potency;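 note: inhibitor potency for blocking SAH production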
# [8] = qHTS for identification of novel therapeutic agents for treatment of microphthalmiaassociated transcription factor (MiT) renal cell carcinoma (RCC) (AID 1963991); conditions: CellTiter-Glo, 48 h; for z-score: stronger effect = lower value;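 for z-score: curves scaled with 100% = DMSO viability and 0% = empty wells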
# In short: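 UOK109/UOK124/UOK145 (TFE3 fusions, three partners); 500 cells/well; MIPE v4.0, 1912 cpds, 11 conc.; 48 h, 37 C; CellTiter-Glo, 15 min RT; lum. Norm.: DMSO 100%, empty 0%.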
# [9] = measured here: cell count channel max response
# [10] = measured here: lipid channel max response
# [11] = measured here: red reporter channel AC50, EF-alpha promoter control reporter in MSC80 mouse Schwann cells
# Tags give direction and shape of the fitted curve.
# Chain of UniProt P50135 (P50135 whole entry, looked up): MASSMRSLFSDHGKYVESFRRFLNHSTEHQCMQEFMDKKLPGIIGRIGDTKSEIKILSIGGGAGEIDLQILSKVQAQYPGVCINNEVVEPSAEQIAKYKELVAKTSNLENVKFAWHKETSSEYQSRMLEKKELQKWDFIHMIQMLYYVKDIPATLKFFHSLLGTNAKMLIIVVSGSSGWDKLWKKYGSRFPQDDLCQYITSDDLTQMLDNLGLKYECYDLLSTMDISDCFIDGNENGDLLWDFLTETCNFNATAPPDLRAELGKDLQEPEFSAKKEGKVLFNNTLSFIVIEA
compound,measurement,setting,value
CC(C)COCC(CN(Cc1ccccc1)c1ccccc1)N1CCCC1 (centres undefined),max response,[1]; [9],52.9%
same,max response,[1]; [10],55.2%
same,AC50,[2]; [11],"84.9 µM [falling, single point]"
same,AC50,[3],"35.5 µM [falling, partial curve, poor fit]"
same,AC50,[4]; measured here: PEO1 parental viability,"15.5 µM [falling, partial curve]"
same,AC50,[4]; measured here: PEO4 viability,"12.3 µM [falling, partial curve]"
c1ccc2c(c1)CC(N1CCN(c3cccc4c3OCCO4)CC1)C2,max response,[1]; [9],53.5%
same,max response,[1]; [10],57%
same,AC50,[2]; [11],"23.9 µM [rising, single point]"
C[C@]12CCC(=O)C=C1CC[C@@H]1[C@@H]2[C@@H](O)C[C@@]2(C)[C@H]1CC[C@]2(O)C(=O)COC(=O)CCC(=O)O,max response,[1]; [9],61.6%
same,max response,[1]; [10],59.4%
same,AC50,[2]; [11],"84.9 µM [falling, single point]"
same,AC50,[3],"22.4 µM [rising, single point]"
CCc1cccc(N(C)C(N)=Nc2cccc3ccccc23)c1,AC50,[5],"12.6 µM [rising, partial curve]"
same,max response,[1]; [9],46.3%
same,max response,[1]; [10],45.2%
same,AC50,"[2]; measured here: green reporter channel AC50, mouse Pmp22 promoter in mouse Schwann cells","60.1 µM [falling, partial curve]"
same,AC50,[2]; [11],"67.5 µM [falling, partial curve]"
same,AC50,[6],"18.4 µM [falling, single point]"
same,IC50,[7],"27.3 µM [falling, partial curve, poor fit]"
OC[C@H]1O[C@@H](n2cnc3c(Nc4ccccc4)ncnc32)[C@H](O)[C@H]1O,max response,[1]; [9],32.9%
same,max response,[1]; [10],34.9%
same,AC50,[2]; [11],"75.7 µM [falling, single point]"
CC1COc2c(N3CCN(C)CC3)c(F)cc3c(=O)c(C(=O)O)cn1c23 (centres undefined),max response,[1]; [9],34.6%
same,max response,[1]; [10],36.3%
same,z-score,"[8]; TFE3-RCC UOK109 viability, measured here: UOK109 Z-AUC",0.0527
same,z-score,"[8]; TFE3-RCC viability, measured here: UOK124 Z-AUC",0.65
same,z-score,"[8]; TFE3-RCC viability, measured here: UOK145 Z-AUC",-0.0295
same,AC50,"[8]; TFE3-RCC viability, measured here: UOK145 cell viability","5.26 µM [falling, partial curve, poor fit]"
